Patent US20190233522A1, “NEW DOSAGE REGIMENS FOR ANTIBODY DRUG CONJUGATES BASED ON ANTI-AXL ANTIBODIES” (GENMAB A/S, priority 2016, published 2019)

How the values were obtained:
AXL = AXL (Homo sapiens, UniProt P30530); assay: Competition with Gas6 for binding to AXL
A431 tumors = assay: A431 xenograft model (high Gas6); format: in vivo; details: 3 mg/kg i.p., SCID mice
Procedure: (§1) Tumor induction was performed by subcutaneous injection of 5×10^6 A431 or LCLC-103H tumor cells (both obtained from Leibniz-Institut—Deutsche Sammlung von Mikroorganismen and Zellkulturen GmbH (DSMZ)) in 200 μL PBS in the right flank of female SCID mice. Treatment was started 14-21 days after tumor cell inoculation, when the average tumor size was >100-200 mm^3 and distinct tumor growth was observed. Mice received a single injection or a total of 4 biweekly intraperitoneal injections with IgG1-AXL-vcMMAE ADCs or control antibody (unconjugated IgG1-b12), as indicated. Tumor volume was determined at least two times per week. Tumor volumes (mm^3) were calculated from caliper (PLEXX) measurements as: 0.52×(length)×(width)^2.

LCLC-103H tumors = assay: LCLC-103H xenograft model (low Gas6, Example 5); format: in vivo; details: 3 mg/kg i.p., SCID mice
Procedure: as §1

B1: IgG1-AXL-061: anti-AXL antibody 061 (VH SEQ ID No 143, VL SEQ ID No 144) (antibody, V domains shown)
VH: QVQLVQSGAEVKKPGASVKVSCKASGYAFTGYGISWVRQAPGQGLEWIGWISAYNGNTNYVQNLQDRVTMTTDTSTSTAYMELRSLRSDDTAVYYCARDHISMLRGIIIRNYWGQGTLVTVSS
VL: [about 100 residues not printed]
modifications: IgG1 constant regions; homo sapiens
- competition with Gas6 for binding to AXL (AXL): compete

B2: IgG1-AXL-061-vcMMAE: anti-AXL antibody 061 (Ig1 binder, competes with Gas6) conjugated to vcMMAE (conjugate)
VH: B1 VH
VL: [about 100 residues not printed]
- anti-tumor activity on A431 tumors (A431 tumors): did not show anti-tumor activity
- anti-tumor activity in the LCLC-103H xenograft model (LCLC-103H tumors): induced tumor regression
